The whole screen tested about 350,000 compounds, of which about 9,900 (2.8%) were called active. Inconclusive means that the source gave no clear call. Such entries were picked first, then a sample of the others. Calls come from the whole dose curve; as a rule, active = well fitted activation curve with a large enough effect; inconclusive = small, poorly fitted or top-dose-only effect; inactive = no such curve, though single readings can be large or run the other way. No potency is given beside an inconclusive call; the fits are too rough.
Assay: A quantitative high throughput screen for small molecules that induce DNA re-replication in MCF 10a normal breast cells. Note: nearly all actives have a fitted effect of over 50% in size.
Details: MCF 10A DNA re-replication, Hoechst nuclear intensity, 48 h; series mostly up to 46.1 µM
Potency is the fitted concentration of half-maximal effect; tags give direction and shape of the fitted curve.

SMILES | Potency
CCCCc1nc(SCC(=O)Nc2cccc(Cl)c2)n[nH]1 | inconclusive [activator, single point]
COc1ccc(S(=O)(=O)N2CCOCC2)cc1C(=O)N(C)CCOc1ccc(Cl)cc1 | inactive
CCOC(=O)/C(C#N)=C\c1cccnc1 | inactive
CN1CCN(c2cc(N3CCc4ccccc4C3)c(F)cc2[N+](=O)[O-])CC1 | inconclusive [activator, partial curve, poor fit]
COc1cccc(CN(C)C(=O)CNC(=O)c2ccc(-c3ccccc3)cc2)c1OC | inactive
Oc1c(N=NC(=S)Nc2ccccc2F)c2ccccc2n1Cc1ccccc1 | inconclusive [activator, partial curve, poor fit]
CCCC1(C(=O)OCC)NC(c2ccc(OC)cc2OC)C2C(=O)N(c3ccccc3)C(=O)C21 (stereo not drawn) | inactive
Cc1cc(/C=N\NC(=O)CC(=O)NC2CCCCC2)c(C)n1-c1cccc(Cl)c1Cl | inconclusive [activator, partial curve, poor fit]
Cc1ccccc1-n1c(SCC(=O)N2CCN(c3ccccn3)CC2)nnc1N1CCOCC1 | inconclusive [activator, partial curve, poor fit]
Cc1ccc(-c2csc3nc4cc(C(N)=O)ccc4c(=O)n23)cc1 | inconclusive [activator, full curve, poor fit]
CCc1ccccc1NC(=O)CCc1nc(-c2ccc(C)cc2)no1 | inactive
CC(C)(C)NC(=O)CCN(/N=C/c1ccc([N+](=O)[O-])o1)C1=NS(=O)(=O)c2ccccc21 | active: 23.1 µM
O=C(COc1ccccc1F)NNC(=O)c1cccc(-n2cccc2)c1 | inactive
CC(=O)N1CCN(c2ccccc2NC(=O)c2ccc(Br)o2)CC1 | inactive
COc1ccc2c(c1)-c1ccccc1S(=O)(=O)N2C | inconclusive [activator, partial curve, poor fit]
Cc1ccc(NC(=O)CSc2nc3c(cc2C#N)C(=O)CCC3)cc1S(=O)(=O)N(C)C | inconclusive [activator, single point]
CCc1cccc(NC(=O)CCc2c(C)nn(-c3ccc(N4CCCCC4)nn3)c2C)c1 | inactive
O=[N+]([O-])c1cccc(/C=N/Nc2nc(NCc3ccccc3)nc(N3CCOCC3)n2)c1 | inconclusive [activator, single point]
NS(=O)(=O)c1ccc(NNC(=O)c2cccs2)cc1 | inconclusive [activator, partial curve, poor fit]
CC(=O)C1=C(O)C(=O)N(c2ccccn2)C1c1ccccc1[N+](=O)[O-] (stereo not drawn) | inconclusive [activator, single point]
CCOC(=O)CSc1nc2c(c(=O)[nH]1)C(C)(CC)Cc1ccccc1-2 (stereo not drawn) | inconclusive [activator, partial curve, poor fit]
COc1ccc(CNC(=O)COC(=O)c2ccc(Br)cc2)cc1 | inconclusive [activator, partial curve, poor fit]

SMILES | Potency
COc1ccc(Cl)cc1NC(=O)C(C)Sc1nnc(C2CC2)n1C1CC1 (stereo not drawn) | inactive
CCn1c(SCC(=O)N2CC(C)OC(C)C2)nc2c([nH]c3ccccc32)c1=O (stereo not drawn) | inactive
O=C(O)CCc1nc2ccccc2c(=O)[nH]1 | inactive
CC(=O)Cc1nsc(NC(=O)c2ccc(-c3cccc(C(F)(F)F)c3)o2)n1 | active: 13 µM
CCc1nc2scc(-c3cccs3)c2c(=O)o1 | inconclusive [activator, partial curve, poor fit]
CCS(=O)(=O)N1CCC(C(=O)NCCN2CCN(Cc3ccccc3)CC2)CC1 | inconclusive [activator, partial curve, poor fit]
C=CS(=O)(=O)N(Cc1ccccc1Br)[C@H](CO)Cc1ccccc1 | active: 16.4 µM
COc1ccc(CN(C(=O)Cn2nnc(-c3ccc(C)o3)n2)C(C(=O)NCC2CCCO2)c2ccco2)cc1 (stereo not drawn) | inconclusive [activator, full curve, poor fit]
COc1cccc(C2c3cc4c(cc3OC(N3CCCC3)C2C)OCO4)c1O (stereo not drawn) | inconclusive [activator, single point]
CCC(C)NC(=O)Nc1ccc(Br)cc1Cl (stereo not drawn) | inconclusive [activator, partial curve, poor fit]
Cc1c(-c2ccc(Cl)cc2)oc(=O)c2c(N)n(-c3ccccc3)nc12 | inconclusive [activator, partial curve, poor fit]
CC(C)(C)NC(=O)NCC1CCCC1NC(=O)NC(C)(C)C (stereo not drawn) | inactive
CCCCn1c(CNC(=O)C23CC4CC(CC(C4)C2)C3)nnc1SC(C)CC (stereo not drawn) | inconclusive [activator, partial curve, poor fit]
Cc1cccc(-c2nc3ccccc3c(=O)n2NC(=O)c2ccc([N+](=O)[O-])c(C)c2)c1 | inactive
CCOc1cc(/C=C2/C(=N)N3N=C(CC)SC3=NC2=O)ccc1OC(=O)c1ccco1 | inconclusive [activator, single point]
O=C(COC(=O)c1ccc(F)cc1F)Nc1cc(S(=O)(=O)N2CCOCC2)ccc1Cl | inconclusive [activator, partial curve, poor fit]
Cc1occc1-c1nnc(SCC(=O)NC2CCCC2)n1-c1ccccc1 | inconclusive [activator, partial curve, poor fit]
O=C(Nc1ccc(Br)cn1)c1ccc(Cl)s1 | inconclusive [activator, single point]
O=C1CCN(Cc2ccccc2)C=C1c1cccc(O)c1 | inconclusive [activator, single point]
COc1cccc2cc(C(=O)NCc3ccc(C)cc3)c(=N)oc12 | inconclusive [activator, partial curve, poor fit]
Nc1ccc2ccccc2c1N=Nc1ccccc1 | inconclusive [activator, single point]

From PubChem BioAssay AID624296 (National Center for Advancing Translational Sciences (NCATS), 2012)
